Consider 42 compounds from ChEMBL document CHEMBL4888484, “Replenishing the malaria drug discovery pipeline: Screening and hit evaluation of the MMV Hit Generation Library 1 (HGL1) against asexual blood stage Plasmodium falciparum ,using a nano luciferase reporter read-out” (2022).

Hit rate of the full screen: of about 150,000 compounds, about 540 (0.36%) showed an effect of 50% or more. This is one part of the list.

As a reminder, the % Inhibition is the relative decrease from the control value, in per cent.

The assay concerns Plasmodium falciparum. Briefly: Primary screen in NF54 nanoGlo assay, in single point, at 2uM, 72h; a lower Z score goes with more inhibition. The class given is functional, Erythrocyte. As to conditions: timepoint 72 hour.
For `COC(=O)Nc1ccc(NCc2c(C)nn(C)c2C)cc1F`, the “% Inhibition” value is on record as -15% and the Z score is recorded as 1.73.
The matching figures for `Cc1noc(C)c1S(=O)(=O)NCC1(N(C)C)CCCC1`: -1% and 0.28.
The matching figures for `CN1CCC2CCN(C(=O)NCc3ccccc3OC3CCC3)C2C1` (centres undefined): 4% and -0.6.
For `CC(CCNS(=O)(=O)c1ccccc1)NC(=O)C1CCCOC1` (centres undefined), in that order: -7% and 1.38.
As for `COc1cccc(Nc2ccc(N3C(=O)N[C@@](C)(CCF)C3=O)nc2)c1`, the “% Inhibition” value is -2% and the Z score was 0.37.
On to `COc1cc(NC(=O)N2CCC[C@H](c3nc(-c4ccccc4)c[nH]3)C2)cc(OC)c1`, for which the “% Inhibition” value was -3% and the Z score is reported as 0.46.
`Cc1nc(-c2sccc2S(=O)(=O)N2CCCC2)n(CCO)n1`: the “% Inhibition” value was 4% and the Z score is -0.49.
For `COc1ccc(C(=O)N2CCC3(CC2)OC[C@@H](C(=O)NCc2ccccc2)N3C(=O)c2ccccc2)cc1`, in that order: 12% and -1.8.
The matching figures for `OC1CN(c2ccc(-c3nc(-c4ccccc4F)no3)cn2)C1`: -18% and 2.78.
The matching figures for `COC(=O)CN1C(=O)C2(CCN(C(=O)c3cscn3)CC2)Nc2ccccc21`: 3% and -0.4.
In the case of `O=C(NCCc1ccc(-c2ccsc2)s1)C1CCOCC1`, the “% Inhibition” value was 2% and the Z score is -0.34.
The matching figures for `CS(=O)(=O)N1CCC[C@H](c2nnc(-c3ccsc3)o2)C1`: -18% and 2.04.
The matching figures for `COc1cc(Cl)ccc1C(=O)N1CCC(c2nc(CNC(C)=O)cs2)CC1`: -9% and 1.08.
The matching figures for `Cc1cc(S(=O)(=O)NCCN2CC3CCC(C2)O3)sc1Cl`: -2% and 0.34.
As for `CC(C)N(C)C(=O)Nc1ccncc1F`, the “% Inhibition” value came out at 0% and the Z score is reported as -0.02.
Take `O=C(OC1CCN(C(=O)c2ccccc2F)CC1)c1cscn1`: the “% Inhibition” value is given as 1% and the Z score is on record as -0.1.
For `O=C1C2C(C(=O)N1c1ccc(Oc3cccc4ccccc34)cc1)C1(Br)c3ccccc3C2(Br)c2ccccc21` (centres undefined), in that order: -6% and 0.69.
On to `O=C1CCc2cc(S(=O)(=O)N3CCn4nccc4C3)ccc2N1`, for which the “% Inhibition” value is on record as -11% and the Z score is reported as 1.65.
As to `CC(C)Cc1noc(CNC(=O)NCc2ccco2)n1`, the “% Inhibition” value was found to be 5% and the Z score is listed as -0.65.
The matching figures for `COc1cc(OC)cc(C2C(S(=O)(=O)NC3CCCCC3)CON2C)c1` (centres undefined): 4% and -0.77.
Turning to `C[C@@H](c1ccon1)N(C)Cc1cnc2c(-c3ccccc3)cnn2c1`, the “% Inhibition” value worked out at 7% and the Z score was -0.99.
The matching figures for `O=S(=O)(c1cc(F)ccc1NCCN1CC=CCC1)C(F)(F)F`: 5% and -0.94.
The matching figures for `O=C(N[C@H]1CC12CCCCC2)C1CCCC1`: -12% and 2.02.
For `Cc1ccc(S(=O)(=O)NCc2cccc(C(=O)N3CCCC3)c2)s1`, in that order: -37% and 4.28.
On to `O=C(NCCc1nccs1)N[C@H]1CCCC[C@H]1CC(F)(F)F`, for which the “% Inhibition” value is given as -8% and the Z score stood at 1.17.
The matching figures for `CCc1nn2c(c1-c1ccc(C)c(S(=O)(=O)N3CCc4ccccc4C3)c1)NC(=O)CCC2=O`: -8% and 0.99.
On to `CC#CCN(C)C(=O)Nc1ccc(F)cn1`, for which the “% Inhibition” value is given as -4% and the Z score is 0.49.
The matching figures for `O[C@H]1[C@H](n2cc(-c3ccccc3F)nn2)c2ccccc2C12CCNCC2`: -3% and 0.69.
For `NC(=O)C1CCC(NC(=O)CC2CC2)CC1` (centres undefined), in that order: 0% and 0.04.
The matching figures for `C[C@@H](CN1CC(c2ccccc2)(c2ccccc2)CCC1=O)N1CCN(C)CC1`: -5% and 1.06.
Regarding `CNC(=O)CN1c2ccccc2C(=O)N(C)[C@@H]1c1ccsc1`, the “% Inhibition” value is listed as 5% and the Z score was -0.96.
Turning to `O=C(Cc1ncccc1F)N1CC2(CCC2)[C@@H]1C1CC1`, the “% Inhibition” value was -11% and the Z score was 1.25.
The matching figures for `Cc1ccc(Oc2c(CN(CC(O)COC(C)(C)C)CC3CCCO3)c(-c3ccccc3)nn2C)cc1` (centres undefined): -7% and 0.81.
In the case of `CNC(=O)NC(=O)CCN1CCN(Cc2ccc3c(c2)CCO3)CC1`, the “% Inhibition” value is reported as -7% and the Z score is on record as 1.25.
For `Cc1cc(-c2cc(S(=O)(=O)Nc3ccccc3)c(C)o2)[nH]n1`, in that order: -4% and 0.42.
The matching figures for `Cc1cccc(C(=O)Nc2ccc(N3CCN(Cc4ccc(F)cc4)C3=O)nc2)c1`: -5% and 0.59.
For `C[C@@H]1C[C@H](O)CN(C(=O)Cc2ccc3cn[nH]c3c2)C1`, in that order: -18% and 2.81.
Turning to `CC(=O)NC1CCC(Nc2ccc(CC(=O)N3CCc4ccccc43)cc2)CC1` (centres undefined), the “% Inhibition” value is -5% and the Z score came out at 0.87.
For `Cc1cccc([C@@H](C)C(=O)NCC2(CF)CCOCC2)c1`, in that order: 2% and -0.2.
For `Cc1ccc(CS(=O)(=O)N2CCC(C(=O)Nc3ccc(C)cc3)CC2)cc1`, in that order: -13% and 2.36.
The matching figures for `CCN1C(=O)CC(Nc2ccc3c(c2)NC(=O)C(C)O3)C1=O` (centres undefined): -2% and 0.37.
As for `O=C(CC1(CN2Cc3ccccc3C2=O)CCCCC1)N[C@H](CO)Cc1ccccc1`, the “% Inhibition” value is -18% and the Z score was found to be 2.22.
